From PubChem BioAssay AID1347417 (National Center for Advancing Translational Sciences (NCATS), 2020)
In all, about 120,000 compounds went through this assay and about 5,300 (4.4%) were called active. Inconclusive means that the source gave no clear call. Such entries were picked first, then a sample of the others. Calls come from the whole dose curve; as a rule, active = well fitted inhibition curve with a large enough effect; inconclusive = small, poorly fitted or top-dose-only effect; inactive = no such curve, though single readings can be large or run the other way. Where the call is inconclusive, the potency comes from a doubtful curve fit.

Assay: qHTS Primary assay for Inhibitors of Plasmodium falciparum Dd2 growth in vitro; note: nearly all actives have a fitted effect of over 65% in size;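 for activity, negative = inhibition: plate controls were DMSO vehicle for no effect and reference drug for full effect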
Conditions: P. falciparum Dd2 growth, SYBR Green, 72 h; activity, negative = inhibition: at 28.9 µM (top of the series) unless noted; series mostly up to 28.9 µM
Procedure, shortened: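 Readout: SYBR Green fluorescence, 485 nm excitation, 535 nm emission, after ~16 h lysis at 37C. Before that, Dd2-infected red cells (2.5% hematocrit) grew 72 h with compound, 29 uM top final concentration.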
Potency is the fitted concentration of half-maximal effect; tags give direction and shape of the fitted curve.

Compound	activity, negative = inhibition	Potency	outcome
Cc1ccc(-c2nc(CSc3nncn4c3cc3occc34)c(C)o2)cc1	inactive: -12.5%	–	–
O=C(Cc1ccc(Cl)cc1)NCc1nnc2cc(-c3nc(C4CC4)no3)ccn12	–	active: 0.447 µM	–
Cc1ccc(Cn2cc(C(=O)c3ccc4c(c3)OCO4)c(=O)c3cc(C)ccc32)cc1	–	active: 10 µM	–
Cc1ccc(CN[C@@H]2CO[C@H](CNC(=O)c3ccc(F)cc3)[C@H]2O)cc1	–	–	inactive [at 44.1 µM]
COC(=O)[C@@H](Cc1cccnc1)NC(=O)[C@H]1CN(C(=O)Nc2ccccc2)CCN1C(=O)C1CCCCC1	–	inconclusive: 5.01 µM [inhibitor, single point]	–
CCOC(=O)C1=C(CN2CCN(c3ccc(OC)cc3)CC2)NC(=O)NC1c1ccc(Cl)cc1 (configuration not stated)	inactive: -16.5%	–	–
COC(=O)c1cc2n(n1)CCN(C(=O)c1cc(-c3ccccc3O)n[nH]1)C2	inactive: -7.01%	–	–
CCOc1ccc(NC(=O)C2CCCN(S(=O)(=O)c3c(C)noc3/C=C/N(C)C)C2)cc1 (configuration not stated)	–	inconclusive: 7.94 µM [inhibitor, partial curve, poor fit]	–
COc1cccc(-n2c(SCC(=O)Nc3nnc(C)s3)nc3c([nH]c4ccccc43)c2=O)c1	–	inconclusive: 8.91 µM [inhibitor, single point]	–
CC(C)Cn1c(=O)c2sccc2n2c(CCCC(=O)N3CCN(c4ccc(F)cc4)CC3)nnc12	–	inconclusive: 3.98 µM [inhibitor, partial curve]	–
Fc1ccc2[nH]c(-c3cccs3)cc2c1	–	inconclusive: 14.1 µM [inhibitor, single point]	–
CCc1ccccc1NC(=O)c1nnn(Cc2ccc(Cl)cc2)c1N	–	inconclusive: 15.8 µM [inhibitor, single point]	–
O=C(CN1CCCCCC1)NCC12CCCC=C1NC(=O)CC2 (configuration not stated)	–	inconclusive: 11.2 µM [inhibitor, single point]	–
Cc1ccc(NC(=O)c2ccc(CN3CC(=O)N4CCCCC4C3=O)cc2)cc1 (configuration not stated)	–	–	inactive
C1CCC(c2nc(CCOCC3CC3)no2)NC1 (configuration not stated)	inactive: -3.88%	–	–
O=C(Cn1c(=O)oc2ccccc21)NCC12CCCC=C1NC(=O)CC2 (configuration not stated)	inactive: -6.43%	–	–
COc1cccc(CN2CCCC3(CCN(C(=O)c4ccc(OC)nc4OC)C3)C2)c1 (configuration not stated)	–	inconclusive: 20 µM [inhibitor, single point]	–
CC1CCC2(CC1)NC(=O)N(CC(=O)NC(C)(C)C)C2=O (configuration not stated)	inactive: 1.2%	–	–
Cc1ccc([S+](=O)([O-])c2nnn3c2nc(N2CCC(F)CC2)c2ccccc23)cc1C	–	inconclusive: 12.6 µM [inhibitor, partial curve, poor fit]	–
O=C(CC1CCCC1)N1[C@H]2CC[C@@H]1c1cnc(-c3ccccc3)nc1C2	–	active: 12.6 µM	–
CC(C)N1C(=O)C2(CCCC2)C1C(=O)NCCCN1CCc2ccccc2C1 (configuration not stated)	–	inconclusive: 17.8 µM [inhibitor, partial curve, poor fit]	–
Cc1ccccc1OCc1nc(C2CN(C(=O)Cc3c[nH]c4ccccc34)C2)no1	–	inconclusive: 17.8 µM [inhibitor, single point]	–
COCC(=O)N[C@H]1C[C@@H](Cc2cc(CN(C)c3ccccc3)on2)C1(C)C	–	inconclusive: 2.24 µM [inhibitor, partial curve]	–

Compound	activity, negative = inhibition	Potency	outcome
CCN1C(=O)C2CC3(CCN(C(=O)c4c[nH]c5ccccc45)CC3)CN2C1=O (configuration not stated)	–	inconclusive: 12.6 µM [inhibitor, partial curve, poor fit]	–
COCCC(=O)Nc1ccc2n(c1=O)C[C@H]1C[C@@H]2CN(CCCc2ccccc2)C1	–	inconclusive: 20 µM [inhibitor, single point]	–
COc1ccc(NC(=O)N2CCC3(CC2)CC(N(C(C)=O)C2CC2)CCO3)cc1 (configuration not stated)	–	inconclusive: 3.98 µM [inhibitor, single point]	–
NC(=O)c1cccc(CN2CCCC3(Cc4ccccc4N(C(=O)c4ccc(Cl)cc4)C3)C2)c1 (configuration not stated)	–	inconclusive: 8.91 µM [inhibitor, partial curve, poor fit]	–
C=CCNC(=O)CCc1c(C)nn(-c2ccc(F)cc2)c1Oc1ccccc1	–	active: 7.94 µM	–
Cc1ccc(CC(=O)N2CCN(C3CCN(Cc4cccnc4)C3=O)CC2)cc1 (configuration not stated)	–	inconclusive: 11.2 µM [inhibitor, partial curve, poor fit]	–
CCc1ccc(C(=O)Nc2ccc(-c3nnc4n3CCCC4)cc2)cc1	–	inconclusive: 2.24 µM [inhibitor, single point]	–
COc1ccc(-c2nc(-c3c(C)noc3C)cc3cc(CN(C)C)oc23)cn1	–	inconclusive: 1.41 µM [inhibitor, partial curve, poor fit]	–
O=C(Cn1ccn2nc(-c3ccc(F)cc3)c(CO)c2c1=O)Nc1cccc(Br)c1	inactive: -12.1%	–	–
Cc1cc(C(=O)N2CCCCCCNC(=O)CC2)nn1C	–	inconclusive: 11.2 µM [inhibitor, partial curve, poor fit]	–
Cc1nc2ccc(S(=O)(=O)NC(CC(C)C)C(=O)N3CCN(c4ccc(F)cc4)CC3)cc2s1 (configuration not stated)	–	inconclusive: 12.6 µM [inhibitor, partial curve]	–
COc1ccc(-c2nccc3c(=O)cc(N4CCOCC4)oc23)cc1OC	inactive: -3.85% [at 44.1 µM]	–	–
CNC(=O)c1ccc2c(c1)n(Cc1ccc(OC)cc1)c(=O)c1ccnn12	inactive: -19.7%	–	–
Cc1nn2c(c1-c1ccccc1[S+](C)(=O)[O-])N(Cc1ccccc1)CCC2	–	inconclusive: 31.6 µM [inhibitor, single point]	–
COc1ccc(CNC(=O)c2ccc3c(c2)CCN3S(=O)(=O)c2ccc(C)cc2)cc1	–	inconclusive: 10 µM [inhibitor, single point]	–
Cc1ccc(NC(=O)C2CCCN2S(=O)(=O)c2cccc3nsnc23)cc1Cl (configuration not stated)	–	inconclusive: 3.16 µM [inhibitor, full curve, poor fit]	–
Cn1cncc1-c1nnc([C@H]2CCN(CC3CC3)C2)o1	inactive: -3.46% [at 44.1 µM]	–	–
O=C(c1cc2n(n1)CC(c1ccc(Cl)cc1)OC2)N1CCN(c2ccc(F)cc2)CC1 (configuration not stated)	–	–	inactive
CNC(=O)[C@@H](C1CC1)N1CCC[C@H]1C(=O)NCc1cccnc1	inactive: 33.2% [at 44.1 µM]	–	–
COCC1CN(Cc2cn(C)c3ccc(OC)cc23)CC12CCNCC2 (configuration not stated)	–	inconclusive: 7.08 µM [inhibitor, partial curve, poor fit]	–
CC1=NS(=O)(=O)N(Cc2ccccc2)C=C1C(=O)OCc1noc(-c2cccc(Cl)c2)n1	inactive: -1.88%	–	–
COc1ccc(-n2nc(C3CCCN(C(=O)Nc4ccccc4)C3)[nH]c2=O)cc1 (configuration not stated)	–	inconclusive: 1.12 µM [inhibitor, full curve]	–
CCc1ccc(NCc2cc3cc(OC)c(OC)cc3n(CC(=O)Nc3cc(C)ccc3C)c2=O)cc1	–	inconclusive: 11.2 µM [inhibitor, single point]	–

Compound	activity, negative = inhibition	Potency	outcome
COc1cccc(-c2cccc(CN)c2)c1	–	inconclusive: 14.1 µM [inhibitor, partial curve]	–
O=C(C1CCC1)N1CCC(c2noc(C3CC3)n2)C1 (configuration not stated)	–	–	inactive [at 5.79 µM]
CNC(=O)[C@@H]1C[C@H](Oc2ccccc2)CN1C(=O)c1cc(-c2ccc(C)cc2)n[nH]1	–	inconclusive: 7.94 µM [inhibitor, partial curve, poor fit]	–
CC(=O)NCCc1ncc(C)n1C1CCCCCC1	–	inconclusive: 1.41 µM [inhibitor, full curve, poor fit]	–
COc1ccc(C(=O)N2C[C@@H]3C[C@H](C2)c2c(/C=C/c4ccc(Cl)cc4)ccc(=O)n2C3)cc1	–	inconclusive: 11.2 µM [inhibitor, single point]	–
COc1ccc(CN2CCC3(CC2)CNC(=O)c2ccccc2O3)cc1	inactive: 1.1%	–	–
CC(C)(Oc1nn(Cc2cccc(Cl)c2)c2ccccc12)C(=O)NC1CC1	–	inconclusive: 3.16 µM [inhibitor, full curve, poor fit]	–
C=Cc1ccc(CN2C(=O)c3ccccc3Sc3ccc(C(=O)OCc4ccco4)cc32)cc1	–	inconclusive: 15.8 µM [inhibitor, single point]	–
CN1CCCC2(CCN(S(=O)(=O)c3ccc(F)c(F)c3F)C2)C1=O (configuration not stated)	inactive: -23.8%	–	–
Cc1ccccc1CCN1CCC(CN(C(=O)c2ccoc2C)C2CCCC2)CC1	–	inconclusive: 8.91 µM [inhibitor, single point]	–
CNC(=O)[C@@H]1CN(C(=O)c2conc2C)C[C@H]1COC	inactive: 22.6%	–	–
COc1ccc(C(=O)N2C[C@@H](F)[C@@H](OCc3nc4ccccc4o3)C2)cc1	–	inconclusive: 22.4 µM [inhibitor, single point]	–
CCOC(=O)C1(Cc2ccccc2C)CCCN(Cc2cnc(C)s2)C1 (configuration not stated)	–	active: 11.2 µM	–
Cc1ccc(N(CC(=O)Nc2ccc(C)c(F)c2)S(=O)(=O)c2c(C)n[nH]c2C)cc1	–	active: 8.91 µM	–
O=C1NCCCCCCN(C(=O)Cc2ccccc2)[C@H]2C[C@H](c3nc(Cc4ccccc4)no3)C[C@@H]12	–	inconclusive: 3.55 µM [inhibitor, single point]	–
COc1ccc(-c2ccnc(N[C@H]3CO[C@H]4[C@@H]3OC[C@H]4OC(=O)Nc3cccc(C(F)(F)F)c3)n2)cc1	–	inconclusive: 8.91 µM [inhibitor, single point]	–
CC(C)c1ccc(NC(=O)c2cc(S(=O)(=O)NCc3ccccc3Cl)ccc2F)cc1	–	inconclusive: 10 µM [inhibitor, single point]	–
Cc1ncccc1OC1(C(=O)O)CCN(C(=O)c2cccc(F)c2)CC1	inactive: 3.61%	–	–
Cc1ccc(OCC(=O)N2CCC3(CC2)CCC(O)(CN(C)C)CC3)cc1	inactive: -8.27%	–	–
COCc1nc(C2CC(NC(=O)CCc3c[nH]c4ccccc34)C2)cc(=O)[nH]1 (configuration not stated)	inactive: 9.4%	–	–
COc1ccccc1CNc1ccc(-c2nc(-c3ccncc3)no2)cc1[N+](=O)[O-]	–	inconclusive: 2.24 µM [inhibitor, single point]	–
